The target of assay [1] is GST-tagged GDP-loaded KRAS G12D (amino acids 1-188) (Homo sapiens, UniProt P01116, G12D). The experiment in a line: biochemical.
Assay [2] addresses GST-tagged GDP-loaded WT KRAS (amino acids 1-188) (Homo sapiens, UniProt P01116). The experiment in a line: biochemical.

pIC50: −log10 of the molar value.

As usually defined, the pIC50 is the IC50 on a negative log10 scale, so that one unit is a factor of ten. Higher therefore signals a low IC50.

In the case of `Nc1cc(Cl)c(C(F)(F)F)c(-c2nc3c4c(nc(OCC56COC(C(F)F)(C5)C6)nc4c2F)N2C[C@H]4CC[C@H](N4)[C@H]2CCO3)c1` [Example 35, 3-chloro-5-((6aR,7S,10R)-13-((1-(difluoromethyl)-2-oxabicyclo[2.1.1]hexan-4-yl)methoxy)-1-fluoro-5,6,6a,7,8,9,10,11-octahydro-4-oxa-3,11a,12,14,15-pentaaza-7,10-methanocyclohepta[4,5]cyclo-octa[1,2,3-de]naphthalen-2-yl)-4-(trifluoromethyl)aniline], the pIC50 is 9.60 in assay [1] and 7.00 in assay [2].

With `CC12CCC(COc3nc4c5c(nc(-c6cc(N)cc(Cl)c6C(F)(F)F)c(F)c5n3)OCC[C@@H]3[C@@H]5CC[C@H](CN43)N5)(CO1)C2` [Example 36, 3-chloro-5-((6aR,7S,10R)-1-fluoro-13-((1-methyl-2-oxabicyclo[2.2.1]heptan-4-yl)methoxy)-5,6,6a,7,8,9,10,11-octahydro-4-oxa-3,11a,12,14,15-pentaaza-7,10-methanocyclohepta[4,5]cyclo-octa[1,2,3-de]naphthalen-2-yl)-4-(trifluoromethyl)aniline], the pIC50 was 9.09 in assay [1] and 6.78 in assay [2].

As to `Nc1cc(Cl)c(C(F)(F)F)c(-c2nc3c4c(nc(OCC56COCC(F)(C5)C6)nc4c2F)N2C[C@H]4CC[C@H](N4)[C@H]2CCO3)c1` [Example 37, 3-chloro-5-((6aR,7S,10R)-1-fluoro-13-((5-fluoro-3-oxabicyclo[3.1.1]heptan-1-yl)methoxy)-5,6,6a,7,8,9,10,11-octahydro-4-oxa-3,11a,12,14,15-pentaaza-7,10-methanocyclohepta[4,5]cyclo-octa[1,2,3-de]naphthalen-2-yl)-4-(trifluoromethyl)aniline], the pIC50 in assay [1] was 9.28; in assay [2], 6.69.

As for `Oc1cc(Cl)c(C2CC2)c(-c2nc3c4c(nc(OCC56COC(C5)C6)nc4c2F)N2C[C@H]4CC[C@H](N4)[C@H]2CCO3)c1` [Example 38, 3-((6aR,7S,10R)-13-((2-oxabicyclo[2.1.1]hexan-4-yl)methoxy)-1-fluoro-5,6,6a,7,8,9,10,11-octahydro-4-oxa-3,11a,12,14,15-pentaaza-7,10-methanocyclohepta[4,5]cyclo-octa[1,2,3-de]naphthalen-2-yl)-5-chloro-4-cyclopropylphenol], the pIC50 in assay [1] was 8.44; in assay [2], under 6.00.

Turning to `COCC12CC(COc3nc4c5c(nc(-c6cc(N)cc(Cl)c6C(F)(F)F)c(F)c5n3)OCC[C@@H]3[C@@H]5CC[C@H](CN43)N5)(CO1)C2` [Example 39, 3-chloro-5-((6aR,7S,10R)-1-fluoro-13-((1-(methoxymethyl)-2-oxabicyclo[2.1.1]hexan-4-yl)methoxy)-5,6,6a,7,8,9,10,11-octahydro-4-oxa-3,11a,12,14,15-pentaaza-7,10-methanocyclohepta[4,5]cyclo-octa[1,2,3-de]naphthalen-2-yl)-4-(trifluoromethyl)aniline], the values for the pIC50 in assay [1] and in assay [2] were 9.33 and 6.53, respectively.

On to `Nc1cc(Cl)c(C(F)(F)F)c(-c2nc3c4c(nc(OCC56CCC(CC5)OC6)nc4c2F)N2C[C@H]4CC[C@H](N4)[C@H]2CCO3)c1` [Example 40, 3-((6aR,7S,10R)-13-((2-oxabicyclo[2.2.2]octan-4-yl)methoxy)-1-fluoro-5,6,6a,7,8,9,10,11-octahydro-4-oxa-3,11a,12,14,15-pentaaza-7,10-methanocyclohepta[4,5]cyclo-octa[1,2,3-de]naphthalen-2-yl)-5-chloro-4-(trifluoromethyl)aniline], for which the figures for the pIC50 in assay [1] and in assay [2] were 8.96 and 6.37, respectively.

Take `Nc1cc(Cl)c(C(F)(F)F)c(-c2nc3c4c(nc(OCC56CCC(C5)OC6)nc4c2F)N2C[C@H]4CC[C@H](N4)[C@H]2CCO3)c1` [Example 41, 3-((6aR,7S,10R)-13-((2-oxabicyclo[2.2.1]heptan-4-yl)methoxy)-1-fluoro-5,6,6a,7,8,9,10,11-octahydro-4-oxa-3,11a,12,14,15-pentaaza-7,10-methanocyclohepta[4,5]cyclo-octa[1,2,3-de]naphthalen-2-yl)-5-chloro-4-(trifluoromethyl)aniline]: the pIC50 was 9.29 in assay [1] and 6.90 in assay [2].

For `COC(=O)N1CC(C)(COc2nc3c4c(nc(-c5cc(N)cc(C)c5C(F)(F)F)c(F)c4n2)OCC[C@@H]2[C@@H]4CC[C@H](CN32)N4)C1` [Example 43, methyl 3-((((6aR,7S,10R)-2-(5-amino-3-methyl-2-(trifluoromethyl)phenyl)-1-fluoro-5,6,6a,7,8,9,10,11-octahydro-4-oxa-3,11a,12,14,15-pentaaza-7,10-methanocyclohepta[4,5]cyclo-octa[1,2,3-de]naphthalen-13-yl)oxy)methyl)-3-methylazetidine-1-carboxylate], the pIC50 is 8.60 in assay [1] and 6.23 in assay [2].

Consider `C[C@](O)(COc1nc2c3c(nc(-c4cc(N)cc(Cl)c4C(F)(F)F)c(F)c3n1)OCC[C@@H]1[C@@H]3CC[C@H](CN21)N3)C(F)(F)F` [Example 44, (S)-3-(((6aR,7S,10R)-2-(5-amino-3-chloro-2-(trifluoromethyl)phenyl)-1-fluoro-5,6,6a,7,8,9,10,11-octahydro-4-oxa-3,11a,12,14,15-pentaaza-7,10-methanocyclohepta[4,5]cyclo-octa[1,2,3-de]naphthalen-13-yl)oxy)-1,1,1-trifluoro-2-methylpropan-2-ol], for which the pIC50 is 8.28 in assay [1] and under 6.00 in assay [2].

Consider `Nc1cc(Cl)c(C(F)(F)F)c(-c2nc3c4c(nc(OCC56CCC(COC5)C6)nc4c2F)N2C[C@H]4CC[C@H](N4)[C@H]2CCO3)c1` [Example 45, 3-((6aR,7S,10R)-13-((3-oxabicyclo[3.2.1]octan-1-yl)methoxy)-1-fluoro-5,6,6a,7,8,9,10,11-octahydro-4-oxa-3,11a,12,14,15-pentaaza-7,10-methanocyclohepta[4,5]cyclo-octa[1,2,3-de]naphthalen-2-yl)-5-chloro-4-(trifluoromethyl)aniline], for which the pIC50 is 9.20 in assay [1] and 6.53 in assay [2].

With `CN1C(=O)OC2CC1(COc1nc3c4c(nc(-c5cc(N)cc(Cl)c5C(F)(F)F)c(F)c4n1)OCC[C@@H]1[C@@H]4CC[C@H](CN31)N4)C2` [Example 46, 5-((((6aR,7S,10R)-2-(5-amino-3-chloro-2-(trifluoromethyl)phenyl)-1-fluoro-5,6,6a,7,8,9,10,11-octahydro-4-oxa-3,11a,12,14,15-pentaaza-7,10-methanocyclohepta[4,5]cyclo-octa[1,2,3-de]naphthalen-13-yl)oxy)methyl)-4-methyl-2-oxa-4-azabicyclo[3.1.1]heptan-3-one], the pIC50 in assay [1] was 9.08; in assay [2], 6.61.

In the case of `CN1C(=O)OC2(C)CC1(COc1nc3c4c(nc(-c5cc(N)cc(Cl)c5C(F)(F)F)c(F)c4n1)OCC[C@@H]1[C@@H]4CC[C@H](CN31)N4)C2` [Example 47, 5-((((6aR,7S,10R)-2-(5-amino-3-chloro-2-(trifluoromethyl)phenyl)-1-fluoro-5,6,6a,7,8,9,10,11-octahydro-4-oxa-3,11a,12,14,15-pentaaza-7,10-methanocyclohepta[4,5]cyclo-octa[1,2,3-de]naphthalen-13-yl)oxy)methyl)-1,4-dimethyl-2-oxa-4-azabicyclo[3.1.1]heptan-3-one], the pIC50 in assay [1] is 9.59; in assay [2] it was 6.81.

Turning to `CC12COCC(COc3nc4c5c(nc(-c6cc(N)cc(Cl)c6C(F)(F)F)c(F)c5n3)OCC[C@@H]3[C@@H]5CC[C@H](CN43)N5)(C1)C2` [Example 48, 3-chloro-5-((6aR,7S,10R)-1-fluoro-13-((5-methyl-3-oxabicyclo[3.1.1]heptan-1-yl)methoxy)-5,6,6a,7,8,9,10,11-octahydro-4-oxa-3,11a,12,14,15-pentaaza-7,10-methanocyclohepta[4,5]cyclo-octa[1,2,3-de]naphthalen-2-yl)-4-(trifluoromethyl)aniline], the results for the pIC50 in assay [1] and in assay [2] were 8.60 and 6.19, respectively.

For the compound `Cc1cc(N)cc(-c2nc3c4c(nc(OCC56COC(CF)(C5)C6)nc4c2F)N2C[C@H]4CC[C@H](N4)[C@H]2CCO3)c1C(F)(F)F` [Example 49, 3-((6aR,7S,10R)-1-fluoro-13-((1-(fluoromethyl)-2-oxabicyclo[2.1.1]hexan-4-yl)methoxy)-5,6,6a,7,8,9,10,11-octahydro-4-oxa-3,11a,12,14,15-pentaaza-7,10-methanocyclohepta[4,5]cyclo-octa[1,2,3-de]naphthalen-2-yl)-5-methyl-4-(trifluoromethyl)aniline], the figures for the pIC50 in assay [1] and in assay [2] were 8.68 and 6.35, respectively.

On to `Nc1cc(Cl)c(C(F)(F)F)c(-c2nc3c4c(nc(OCC56COC(CF)(C5)C6)nc4c2F)N2C[C@H]4CC[C@H](N4)[C@H]2CCO3)c1` [Example 50, 3-chloro-5-((6aR,7S,10R)-1-fluoro-13-((1-(fluoromethyl)-2-oxabicyclo[2.1.1]hexan-4-yl)methoxy)-5,6,6a,7,8,9,10,11-octahydro-4-oxa-3,11a,12,14,15-pentaaza-7,10-methanocyclohepta[4,5]cyclo-octa[1,2,3-de]naphthalen-2-yl)-4-(trifluoromethyl)aniline], for which the pIC50 in assay [1] was 9.47; in assay [2], 6.80.

With `Cc1cc(N)cc(-c2nc3c4c(nc(OCC56CCC(C)(C5)OC6)nc4c2F)N2C[C@H]4CC[C@H](N4)[C@H]2CCO3)c1C(F)(F)F` [Example 51, 3-((6aR,7S,10R)-1-fluoro-13-((1-methyl-2-oxabicyclo[2.2.1]heptan-4-yl)methoxy)-5,6,6a,7,8,9,10,11-octahydro-4-oxa-3,11a,12,14,15-pentaaza-7,10-methanocyclohepta[4,5]cyclo-octa[1,2,3-de]naphthalen-2-yl)-5-methyl-4-(trifluoromethyl)aniline], the pIC50 in assay [1] was 8.54; in assay [2] it was under 6.00.
